Assay results from the supplement of paper PMC4967469.
A lower IC50 marks a more sensitive line; a limit (>, <) means that the fit lies beyond the doses tested. AUC sums up the same curve from the lowest dose to the 256-fold higher top dose: 1 means no effect, lower means more sensitive. For some assays here: A top dose marked as inferred was derived from the fitted curves, not read from the paper. For some assays here: Drugs with an entry number were screened twice under separate entries, and the two screens often disagree.

How the values were obtained:
Assay in all cases: Viability of human cancer cell lines after 72 h of drug (GDSC screen)
LAQ824 = compound: O=C(/C=C/c1ccc(CN(CCO)CCc2c[nH]c3ccccc23)cc1)NO [LAQ824]; conditions: top dose 1.024 µM; top dose inferred
Protocol: (§1)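 Human cancer cell lines in 384-well plates, medium with 10% serum, drug for 72 h over a 256-fold dose range (nine 2-fold or five 4-fold steps up to the top dose). Adherent lines were fixed and stained with the nucleic acid dye Syto60, suspension lines read with resazurin; signal relative to control wells, capped at 0 and 100%. One two-parameter sigmoid per drug and line, fitted in a mixed model over all curves with the slope shared within a line.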

Elesclomol = compound: CN(NC(=O)CC(=O)NN(C)C(=S)c1ccccc1)C(=S)c1ccccc1 [Elesclomol]; conditions: top dose 0.2 µM; top dose inferred
Protocol: as §1

VNLG/124 = compound: CCCC(=O)OCc1ccc(OC(=O)/C=C(C)/C=C/C=C(C)/C=C/C2=C(C)CCCC2(C)C)cc1 [VNLG/124]; conditions: top dose 5.12 µM; top dose inferred
Protocol: as §1

BX-912 = compound: O=C(Nc1cccc(Nc2ncc(Br)c(NCCc3cnc[nH]3)n2)c1)N1CCCC1 [BX-912]; conditions: top dose 10.24 µM; top dose inferred
Protocol: as §1

Bleomycin = compound: Cc1c(N)nc([C@H](CC(N)=O)NC[C@H](N)C(N)=O)nc1C(=O)N[C@H](C(=O)N[C@H](C)[C@@H](O)[C@H](C)C(=O)N[C@H](C(=O)NCCc1nc(-c2nc(C(=O)NCCC[S+](C)C)cs2)cs1)[C@@H](C)O)[C@@H](OC1OC(CO)C(O)C(O)C1OC1OC(CO)C(O)C(OC(N)=O)C1O)c1cnc[nH]1 [Bleomycin]
Protocol: as §1

HG-5-88-01 = compound: COc1cc(N2CCC(C(N)=O)CC2)ccc1Nc1nc(N)c(Cl)c(Nc2ccccc2S(=O)(=O)C(C)C)n1 [HG-5-88-01]; conditions: top dose 10 µM; top dose inferred
Protocol: as §1

OSI-930 = compound: O=C(Nc1ccc(OC(F)(F)F)cc1)c1sccc1NCc1ccnc2ccccc12 [OSI-930]; conditions: top dose 10.24 µM
Protocol: as §1

NSC-87877 = compound: O=S(=O)(O)c1ccc2cc(N=Nc3cc(S(=O)(=O)O)c4cccnc4c3O)ccc2c1 [NSC-87877]; conditions: top dose 16 µM; top dose inferred
Protocol: as §1

Masitinib = compound: Cc1ccc(NC(=O)c2ccc(CN3CCN(C)CC3)cc2)cc1Nc1nc(-c2cccnc2)cs1 [Masitinib]; conditions: top dose 20 µM
Protocol: as §1

[1] = top dose 50 µM, screen: GDSC drug entry 1378, top dose inferred
[2] = top dose 64 µM, screen: GDSC drug entry 190

Cell Line	AUC (LAQ824)	IC50 (LAQ824)	AUC (Elesclomol)	IC50 (Elesclomol)	AUC (VNLG/124)	IC50 (VNLG/124)	AUC (BX-912)	IC50 (BX-912)	AUC (Bleomycin; [1])	IC50 (Bleomycin; [1])	AUC (Bleomycin; [2])	IC50 (Bleomycin; [2])	AUC (HG-5-88-01)	IC50 (HG-5-88-01)	AUC (OSI-930)	IC50 (OSI-930)	AUC (NSC-87877)	IC50 (NSC-87877)	AUC (Masitinib)	IC50 (Masitinib)
HCC202 (breast, adherent)	0.356	0.0217 µM	0.781	0.12 µM	0.978	> 5.12 µM	0.899	> 10.2 µM	0.935	> 50 µM	0.75	28.6 µM	0.977	> 10 µM	–	–	–	–	–	–
HCC1428 (breast, adherent)	0.268	0.013 µM	0.777	0.0882 µM	0.986	> 5.12 µM	0.971	> 10.2 µM	0.953	> 50 µM	0.896	> 64 µM	0.986	> 10 µM	0.978	> 10.2 µM	0.987	> 16 µM	0.912	> 20 µM
HCC1569 (breast, adherent)	0.448	0.0441 µM	0.969	> 0.2 µM	0.976	> 5.12 µM	0.845	> 10.2 µM	0.864	> 50 µM	0.295	0.861 µM	0.934	> 10 µM	0.965	> 10.2 µM	0.973	> 16 µM	0.859	> 20 µM
HCC1937 (breast, adherent)	0.516	0.071 µM	0.316	0.00351 µM	0.985	> 5.12 µM	0.932	> 10.2 µM	0.792	26.6 µM	0.057	< 0.25 µM	0.958	> 10 µM	0.968	> 10.2 µM	0.979	> 16 µM	0.899	> 20 µM
HCC1954 (breast, adherent)	0.57	0.103 µM	0.983	> 0.2 µM	0.98	> 5.12 µM	0.983	> 10.2 µM	0.58	5.35 µM	0.842	56.3 µM	0.964	> 10 µM	0.98	> 10.2 µM	0.962	> 16 µM	0.825	14.7 µM
HCC2218 (breast, suspension)	0.317	0.0171 µM	0.814	0.146 µM	0.968	> 5.12 µM	0.983	> 10.2 µM	0.958	> 50 µM	0.817	47.9 µM	0.962	> 10 µM	0.921	> 10.2 µM	0.974	> 16 µM	0.798	12.4 µM
HCT-15 (large intestine, adherent)	0.777	0.438 µM	0.343	0.00446 µM	0.985	> 5.12 µM	0.986	> 10.2 µM	0.585	5.41 µM	0.123	< 0.25 µM	0.985	> 10 µM	0.957	> 10.2 µM	0.854	13.9 µM	0.894	> 20 µM
